The text below walks through data of article PMC4336329 (PLoS ONE, 2015).

SMILES strings stand for the structures. The campaign covered roughly 310,000 compounds. About 2,200 (0.71%) showed an effect of 50% or more. The effect is printed as a negative number. The list shows a part of the results.

In the assay the target is human ether-à-go-go-related gene (hERG) potassium channel (human, UniProt Q12809). In words: primary screen, population patch clamp on CHO cells stably expressing hERG.
Chain of human ether-à-go-go-related gene (hERG) potassium channel (Q12809 whole entry, looked up): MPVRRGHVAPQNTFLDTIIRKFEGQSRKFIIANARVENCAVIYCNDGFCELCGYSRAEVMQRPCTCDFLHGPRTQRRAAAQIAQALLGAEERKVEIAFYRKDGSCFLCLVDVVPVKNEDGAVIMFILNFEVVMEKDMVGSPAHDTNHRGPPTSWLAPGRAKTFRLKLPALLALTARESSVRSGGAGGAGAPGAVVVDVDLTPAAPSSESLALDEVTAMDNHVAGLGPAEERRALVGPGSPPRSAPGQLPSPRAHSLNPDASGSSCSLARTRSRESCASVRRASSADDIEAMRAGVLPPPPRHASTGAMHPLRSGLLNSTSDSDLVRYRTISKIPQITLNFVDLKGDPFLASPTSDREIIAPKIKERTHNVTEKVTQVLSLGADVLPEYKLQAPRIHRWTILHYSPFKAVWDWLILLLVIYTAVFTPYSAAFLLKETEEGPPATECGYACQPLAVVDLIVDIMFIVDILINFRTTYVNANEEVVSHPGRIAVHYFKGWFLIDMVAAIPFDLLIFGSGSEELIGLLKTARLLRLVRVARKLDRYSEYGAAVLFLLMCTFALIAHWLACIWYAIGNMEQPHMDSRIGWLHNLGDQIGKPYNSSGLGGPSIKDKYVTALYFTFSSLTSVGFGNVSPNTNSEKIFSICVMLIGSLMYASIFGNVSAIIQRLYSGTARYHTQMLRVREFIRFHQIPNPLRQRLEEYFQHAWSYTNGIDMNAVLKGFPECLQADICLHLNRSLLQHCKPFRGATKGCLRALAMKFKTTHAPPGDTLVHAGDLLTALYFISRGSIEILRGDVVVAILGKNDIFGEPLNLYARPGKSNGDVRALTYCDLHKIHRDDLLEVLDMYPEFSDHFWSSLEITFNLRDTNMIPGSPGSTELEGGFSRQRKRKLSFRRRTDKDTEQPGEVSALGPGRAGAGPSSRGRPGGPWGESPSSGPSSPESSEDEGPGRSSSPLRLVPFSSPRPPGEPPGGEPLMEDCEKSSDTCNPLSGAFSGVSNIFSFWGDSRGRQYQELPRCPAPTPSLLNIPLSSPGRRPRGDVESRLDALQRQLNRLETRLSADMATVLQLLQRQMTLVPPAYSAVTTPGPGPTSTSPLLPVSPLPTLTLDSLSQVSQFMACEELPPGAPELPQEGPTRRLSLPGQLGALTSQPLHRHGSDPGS
`O=C(CSCc1ccccc1)NCCc1ccc(F)cc1`: the “hERG current change (%, negative = inhibition) at 1uM” value is recorded as 12%.
As for `O=C(Nc1ccc(Cl)cc1)c1csc(-c2ccncc2)n1`, the “hERG current change (%, negative = inhibition) at 1uM” value is given as -9%.
On to `CN(C)c1ccc(C(=O)c2ccccc2)cc1`, for which the “hERG current change (%, negative = inhibition) at 1uM” value worked out at 7.82%.
On to `c1ccc(-n2cnnc2SCc2nc3ccccc3s2)cc1`, for which the “hERG current change (%, negative = inhibition) at 1uM” value is given as 12.2%.
Then `O=C(CCc1nc(-c2ccccn2)no1)NCc1ccc2c(c1)OCO2`, with 11.9%.
Take `COC(=O)c1cc(S(=O)(=O)Nc2ccc(C)cn2)c[nH]1`: the “hERG current change (%, negative = inhibition) at 1uM” value worked out at 12%.
As to `Cn1nc([N+](=O)[O-])nc1N1CCOCC1`, the “hERG current change (%, negative = inhibition) at 1uM” value is recorded as 10.7%.
The same measure for `CC(C)c1cc(-c2cc(C(=O)NCc3ccccc3)on2)nc(NCC2CC2)n1`: 16.6%; for `CC(=O)N/N=C(\C)c1ccc(Br)cc1Br`: 5.2%.
On to `Cc1nc2c(-c3ccc(F)cc3)cnn2c(N)c1-c1ccc(F)cc1`, for which the “hERG current change (%, negative = inhibition) at 1uM” value was determined as 18.9%.
For `COc1ccc(NC(=O)c2cccc(NC(=O)c3ccco3)c2)c(OC)c1`, the “hERG current change (%, negative = inhibition) at 1uM” value worked out at 6.09%.
Take `COc1ccc(S(=O)(=O)N2CCN(C(=O)CN3C(=O)NC(C)(c4ccc5ccccc5c4)C3=O)CC2)cc1` (centres unmarked): the “hERG current change (%, negative = inhibition) at 1uM” value is -2.87%.
Consider `O=Nc1c(O)c2ccccc2c2ccccc12`, for which the “hERG current change (%, negative = inhibition) at 1uM” value is 7.46%.
For `N/C(CC(=O)Nc1cccc(C(F)(F)F)c1)=N/O`, the “hERG current change (%, negative = inhibition) at 1uM” value is recorded as 7.74%.
As to `COc1ccc(-c2csc(/C(C#N)=C\c3cccc([N+](=O)[O-])c3)n2)cc1`, the “hERG current change (%, negative = inhibition) at 1uM” value came to 14.9%.
Then `COc1ccc(Br)cc1/C=C/C(=O)Nc1ccc2ccccc2c1`, with 15.7%.
As to `O=C(Nc1ccccc1C(F)(F)F)C1CCCC1`, the “hERG current change (%, negative = inhibition) at 1uM” value is 19%.
Consider `CCOc1ccc(N(CC(=O)NC2CCCC2)C(=O)CCC(=O)Nc2ccccn2)cc1`, for which the “hERG current change (%, negative = inhibition) at 1uM” value is on record as -22.3%.
Then `CC1=NNC(=O)C1CCC(=O)N/N=C(\C)c1ccc(Cl)cc1` (centres unmarked), with 5.43%; and `CCOC(=O)c1cncn1[C@@H](C)c1ccccc1`, with 7.95%; and `COC(=O)CSC1=C(C#N)C(c2ccccc2)CC(=O)N1` (centres unmarked), with 25.1%.
For the compound `CCC(C)NC(=O)c1c(-c2cc(Cl)c(OC)c(Cl)c2)noc1C` (centres unmarked), the “hERG current change (%, negative = inhibition) at 1uM” value turned out to be 9.63%.
The same measure for `CN(Cc1nc(C(c2ccccc2)c2ccccc2)no1)CC1COCCO1` (centres unmarked): 6.99%; for `CCN(Cc1ccccc1)S(=O)(=O)c1ccc(C(=O)Nc2nnc(-c3ccccc3OC)o2)cc1`: 8.34%; for `CCN(CC)c1ccc(S(=O)(=O)N2CCOCC2)cc1NC(=O)C1CC1`: 3.92%.
As for `O=C(COC(=O)c1ccc2c(c1)OCCO2)Nc1cc(S(=O)(=O)N2CCOCC2)ccc1Cl`, the “hERG current change (%, negative = inhibition) at 1uM” value turned out to be 15.4%.
With `CC(=O)c1cccc(S(=O)(=O)N2CCCC(c3nc4c(nnn4Cc4cccc(Cl)c4)c(=O)[nH]3)C2)c1` (centres unmarked), the “hERG current change (%, negative = inhibition) at 1uM” value is reported as 10.7%.
For the compound `N#CC(=C1CCCC1)c1nc(-c2ccc(Cl)cc2)cs1`, the “hERG current change (%, negative = inhibition) at 1uM” value turned out to be 15.2%.
Take `Cc1cccc(Nc2ccccc2C(=O)NCc2ccco2)c1C`: the “hERG current change (%, negative = inhibition) at 1uM” value amounted to 11.4%.
For `O=C(Nc1nnc(SCc2ccccn2)s1)C1CC(=O)N(c2ccccc2)C1` (centres unmarked), the “hERG current change (%, negative = inhibition) at 1uM” value is 11.1%.
Then `COc1ccc(C(=O)CC(=O)C(=O)Nc2c(C)cccc2C)cc1`, with 25.8%; and `Cc1ccc(-n2nc3ccc(NC(=O)/C=C/c4ccco4)cc3n2)cc1C`, with -1.52%.
The same measure for `Cc1nc2scc(C)n2c(=O)c1S(=O)(=O)Nc1ccc(N2CCN(S(C)(=O)=O)CC2)cc1`: 14.1%.
For `CCC(=O)Nc1cccc(-c2csc(-c3ccccc3)n2)c1`, the “hERG current change (%, negative = inhibition) at 1uM” value is reported as 6.15%.
On to `O=C(CNC(=O)Cc1ccccc1)N=Nc1c(O)[nH]c2ccc(Br)cc12`, for which the “hERG current change (%, negative = inhibition) at 1uM” value came out at 20%.
Take `O=C(CSc1ncnc2ccccc12)Nc1cccc(S(=O)(=O)N2CCCC2)c1`: the “hERG current change (%, negative = inhibition) at 1uM” value worked out at 5.96%.
With `Cc1ccc2cc(C(c3nnnn3Cc3ccccc3)N3CCc4ccccc43)c(=O)[nH]c2c1C` (centres unmarked), the “hERG current change (%, negative = inhibition) at 1uM” value is 2.32%.
On to `CN(C)C(CNc1ccc([N+](=O)[O-])cc1C#N)c1ccccc1` (centres unmarked), for which the “hERG current change (%, negative = inhibition) at 1uM” value is -7.71%.
The same measure for `Cc1ccccc1S(=O)(=O)NC1OC(=O)C(Oc2ccccc2)=C1Br` (centres unmarked): 12.4%; for `CC(C)OC(=O)CSc1nnc(-c2cnccn2)n1Cc1ccco1`: 1.41%; for `Cc1cc(C)n(-c2nnc(N3CCN(c4ccc(F)cc4)CC3)nn2)n1`: 5.81%.
Turning to `Nc1cc(Cl)ccc1C(=O)OCC(=O)N1CCCC1`, the “hERG current change (%, negative = inhibition) at 1uM” value stood at 10.1%.
As for `C=CCn1c(SCC(=O)C23CC4CC(CC(C4)C2)C3)nc(O)cc1=O`, the “hERG current change (%, negative = inhibition) at 1uM” value stood at 13.6%.
Take `CCOP(=O)(c1ccccc1)c1nc(-c2ccccc2Cl)oc1N1CCCCC1` (centres unmarked): the “hERG current change (%, negative = inhibition) at 1uM” value came to 0.969%.
